Measurements reported in the supplement of paper PMC3334620.
Over roughly 33,000 sequences, “E-score (-0.5 to 0.5)” has its median near -0.035; the highest 2% begin near 0.34. This is one part of the list.

Target: T1, Mot3 (UniProt P54785)
T1 sequence: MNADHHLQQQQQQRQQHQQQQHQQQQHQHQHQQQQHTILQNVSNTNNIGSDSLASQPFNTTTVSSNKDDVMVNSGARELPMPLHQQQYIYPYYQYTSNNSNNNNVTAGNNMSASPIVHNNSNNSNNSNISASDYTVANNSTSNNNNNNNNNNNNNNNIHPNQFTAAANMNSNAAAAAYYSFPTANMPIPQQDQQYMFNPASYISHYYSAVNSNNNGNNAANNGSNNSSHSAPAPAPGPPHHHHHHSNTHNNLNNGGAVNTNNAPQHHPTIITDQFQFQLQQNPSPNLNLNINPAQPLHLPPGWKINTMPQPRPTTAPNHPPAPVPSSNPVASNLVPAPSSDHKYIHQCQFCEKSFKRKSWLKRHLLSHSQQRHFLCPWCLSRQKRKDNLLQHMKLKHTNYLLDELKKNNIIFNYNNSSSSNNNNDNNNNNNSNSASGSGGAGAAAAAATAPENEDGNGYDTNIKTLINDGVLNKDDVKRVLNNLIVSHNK
Assay: PBM E-score (8-mer binding enrichment) (E-score (-0.5 to 0.5)); higher = stronger / more preferred TF binding; most listed sequences are background and not binding sites
Conditions: protein concentration: 200 nM; construct: GST-full length
Method in brief: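 Yeast transcription factors carrying a GST tag, as full-length proteins or DNA-binding domains, were produced by PURExpress in vitro transcription/translation. About 100-200 nM protein was applied to universal all-10-mer Agilent arrays, double-stranded by primer extension on fresh or once-stripped slides. Bound protein was detected with fluorescent anti-GST, and scans were normalised with masliner. The Universal PBM Analysis Suite gave each ungapped eight-base word, pooled with its reverse complement, an E-score, a modified Wilcoxon-Mann-Whitney statistic.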

| Sequence | PBM E-score |
| --- | --- |
| TCAAGCCA | -0.13 |
| CTCCGGGC | -0.234 |
| CCCCGAGC | -0.218 |
| CTATCAAA | -0.0817 |
| GAAAGGTA | 0.228 |
| GCGTGCCC | 0.295 |
| AGATGCTG | -0.111 |
| ATAAAAAC | 0.195 |
| CACCAGGC | -0.0662 |
| GATAGACC | 0.0018 |
| CACCTAAG | 0.0913 |
| TAAGTAGA | 0.00282 |
| TATAAGGA | 0.164 |
| ATTGAGCC | 0.00432 |
| CAGTCTCC | -0.146 |
| CATAAAGG | 0.155 |
| CAGTTTGC | -0.111 |
| CCTCCTAA | -0.00753 |
| GATGTACC | 0.129 |
| GAAGCCCA | -0.295 |
| AACCGGGC | -0.367 |
| GACTACGA | -0.212 |
| ATGATGCC | -0.106 |
| ATTCACGC | 0.0838 |
| TATGGTCA | -0.162 |

| Sequence | PBM E-score |
| --- | --- |
| CCGGCAGG | 0.0676 |
| CCTTTGAG | 0.0684 |
| CTCATATC | -0.271 |
| AGCTGTAA | 0.143 |
| CCGGTGCA | -0.18 |
| CACCGATA | 0.0481 |
| ATCTCAGA | -0.0385 |
| CCCTTCAG | -0.0368 |
| AGTTATGG | -0.14 |
| CTTTCTGA | 0.136 |
| AACTTGAA | 0.102 |
| AATCCGCT | -0.247 |
| GCACAGGA | 0.117 |
| GTCAAAGA | 0.07 |
| AAATCACC | 0.0456 |
| CGTCGGCA | -0.106 |
| CGTCGCAA | -0.149 |
| CCCTGCGA | -0.212 |
| CCTACCAA | 0.106 |
| AGGGTGCA | -0.219 |
| CGGCGTGA | -0.216 |
| AAGTATTC | -0.0349 |
| AGAGTGCT | -0.0257 |
| CTCGGTTC | -0.0147 |
| CGGCGTTA | -0.0281 |

| Sequence | PBM E-score |
| --- | --- |
| ATCATAAT | 0.0295 |
| AACGCCTT | 0.249 |
| CAGCTCAA | -0.103 |
| ATTTGGCC | 0.0203 |
| GGATATAC | -0.0873 |
| CATTCCGC | -0.146 |
| ATAGACAG | 0.0639 |
| TACGTAGA | 0.286 |
| ACAGCTCA | 0.041 |
| CTCTACGC | 0.188 |
| CAGCCTAC | -0.0906 |
| CCTCGCCG | -0.331 |
| CGCGGGCA | 0.063 |
| AAGCGCTA | -0.126 |
| AAGCGTAT | -0.0427 |
| AATTAACT | 0.0348 |
| ACGGGCGC | 0.0278 |
| AAAACAAG | 0.229 |
| CGTGCGAG | -0.0346 |
| AAAGTCAG | -0.0665 |
| CGCATTAG | -0.254 |
| CTTACGAC | -0.14 |
| ACGCGTAC | 0.25 |
| GATACGCC | -0.144 |
| CAAACTGC | -0.204 |

| Sequence | PBM E-score |
| --- | --- |
| CAGTGTGG | -0.249 |
| AGCACGTA | 0.136 |
| GCCCCTAA | -0.242 |
| GCCCGAGC | -0.18 |
| ATCGTTAC | -0.0096 |
| TCACATAA | 0.222 |
| ACAATGTA | 0.272 |
| GAGAGTAA | 0.0261 |
| ATAGGTTG | -0.133 |
| ACCACGCT | -0.0319 |
| CAAGTATC | 0.0414 |
| ACATCGCA | 0.156 |
| CATCAGGC | 0.238 |
| GCTTCGTA | 0.0147 |
| ATATGCTG | -0.0858 |
| CAAGATGC | 0.0838 |
| GCAATACA | 0.265 |
| CCCCCATA | -0.133 |
| GCCCGTTA | -0.0937 |
| AGTCACTA | 0.121 |
| ACGAGGTG | 0.0347 |
| ATAAAATC | 0.00782 |
| AGCCAGGG | -0.233 |
| ACTGGATG | -0.0851 |
| AATGCAGT | -0.0982 |

| Sequence | PBM E-score |
| --- | --- |
| CCATGTGC | -0.00372 |
| CCTGCGAC | -0.0871 |
| CAGCAGCG | 0.0445 |
| CCACACCG | -0.0267 |
| AGCCTCTC | -0.133 |
| ACAGTTAT | 0.0104 |
| AGCTAGCA | -0.21 |
| AGGTCGGG | -0.209 |
| GACGCTCA | -0.19 |
| GCAGAAGC | -0.268 |
| AGTTTAAA | 0.199 |
| AGATGTTG | -0.102 |
| ATGAGGGA | -0.183 |
| GACCCCAA | -0.297 |
| GGCCCAAA | -0.315 |
| AAGACATG | 0.2 |
| CAGCGCAA | -0.0296 |
| ATCATGAA | -0.0373 |
| GAATGTGC | -0.0285 |
| ACTGGACC | -0.199 |
| AGATAAAC | 0.0476 |
| CAGTCCAG | -0.196 |
| CGTAAGCA | -0.114 |
| CTTGGGGC | -0.237 |
| CGGGCCAG | -0.185 |

| Sequence | PBM E-score |
| --- | --- |
| ACTCTTTC | -0.19 |
| ATCTAGAA | -0.0569 |
| CCTTCTGA | 0.0882 |
| AAAACCCA | 0.15 |
| GCTCGCAA | -0.0946 |
| ACTGGGTG | -0.018 |
| CCTCAGGA | -0.298 |
| ACTCGATG | 0.0894 |
| CAGGCCTG | -0.079 |
| CGCAGGGA | -0.253 |
| GGATACGA | 0.0163 |
| ATAAGCCC | -0.204 |
| ATATACGG | -0.0183 |
| CCCCAAAA | -0.0747 |
| CATCTAGG | -0.0321 |
| CCTAATAA | 0.0481 |
| CTTCGTAA | 0.223 |
| ATGATAAA | 0.0952 |
| AAGTCGTC | -0.0843 |
| CAACACAC | 0.301 |
| CTGCATTC | 0.0843 |
| AAAAAGGG | 0.0646 |
| AGGGAAAA | 0.0226 |
| AGAGGGTC | -0.157 |
| AACTGGGA | -0.00456 |

| Sequence | PBM E-score |
| --- | --- |
| GCTACCCA | -0.264 |
| GACAGAGC | -0.123 |
| AGTGTAGA | 0.151 |
| CGCAAGCG | -0.0916 |
| GGTCGGAC | -0.231 |
| TAGATCTA | 0.114 |
| ATATCAAA | -0.116 |
| AGCCGTTC | -0.271 |
| TACCCCTA | -0.0975 |
| ATCGCTAA | -0.0133 |
| CGAGGGCA | -0.117 |
| GCACACGA | 0.111 |
| ATACAAAG | 0.246 |
| CACCTGTA | 0.19 |
| GGAGGCAC | 0.474 |
| ACTTACCG | 0.133 |
| AATCATTC | 0.0809 |
| ATCGGTGC | 0.111 |
| AACTCGCC | -0.0661 |
| ACTAGACC | -0.112 |
| ACACAACG | 0.275 |
| AAGGCATA | 0.321 |
